Data published in PubChem BioAssay.
Inconclusive results, whose numbers are uncertain, are shown with a selection of clear calls. Active and inactive are the calls of the source.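 How the source made its calls: active means fitted half-maximal concentration for viability loss no higher than twice the top valid dose, in every repeat run; inconclusive means repeat runs disagree, flat partial loss, or poor curve fit; inactive means the rest.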

Assay: IOSE-T80 viability loss, PAX8-independent line – cell-based, cherry-pick, selectivity assay for PAX8 inhibitor project, dose response (AID 687032);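 further: cells exposed to compound for 96 h before reading; 0% = neutral control wells and -100% = 2 µM mitoxantrone kill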
Settings: CellTiterGlo ATP luminescence, 96 h; at 35 µM (top of the series) unless noted

Row | SMILES | activity change, negative = viability loss
1 | Cc1cc([N+](=O)[O-])nn1CCCC(=O)Nc1sc2c(c1C(N)=O)CCC(C)C2 (stereo unspecified) | inconclusive: 28.9%
2 | C[C@@H]1CN([C@@H](C)CO)C(=O)CCCn2nncc2CO[C@H]1CN(C)S(=O)(=O)c1ccc(Cl)cc1 | inconclusive: 11.1%
3 | O=C(O)C1C=CC(C(=O)O)c2ccccc21 (stereo unspecified) | inconclusive: 7.62%
4 | C[C@@H]1CCCCO[C@H](CN(C)Cc2ccc(C(F)(F)F)cc2)[C@H](C)CN([C@H](C)CO)C(=O)c2cc(NS(=O)(=O)c3ccccc3)ccc2O1 | inconclusive: 23.7%
5 | COc1cc(C(=O)NCC(c2cccs2)N2CCOCC2)ccc1OCc1ccc(Cl)cc1 (stereo unspecified) | inconclusive: -7.1%
6 | C[C@H]1CCCCO[C@H](CN(C)S(=O)(=O)c2ccc(F)cc2)[C@@H](C)CN([C@@H](C)CO)C(=O)c2cc(NS(=O)(=O)c3ccc(Cl)cc3)ccc2O1 | inactive: 10.9%
7 | CCC[C@@H](CN[C@@H](CNC)[C@H](C)CC)NCC1CCC(C(C)(C)C)CC1 (stereo partly specified) | inconclusive: 12%
8 | Cc1nc(SCC(=O)Nc2nc3ccccc3s2)c(C#N)c(C)c1C | inconclusive: -2.79%
9 | C[C@@H]1CN([C@@H](C)CO)C(=O)c2cc(NC(=O)c3ccccc3)ccc2O[C@@H](C)CCCCO[C@@H]1CN(C)Cc1ccc(C(F)(F)F)cc1 | inconclusive: 26.1%
10 | Cc1cc(N/N=C/c2ccc(O)c(C)c2O)nc(-c2ccccc2O)n1 | inactive: 8.05%
11 | Cc1nc(Nc2nc(CSc3nc4ccccc4[nH]3)cc(=O)[nH]2)nc2ccccc12 | inconclusive: -43%
